Data from article PMC10726135.
The list shows a part of the results. At the low end of the ranking the order means little. Measured with an extract: partners may take part in the binding.

Target: T1, HNF4alpha2 (COS-7 nuclear extract) (UniProt P41235)
T1 sequence: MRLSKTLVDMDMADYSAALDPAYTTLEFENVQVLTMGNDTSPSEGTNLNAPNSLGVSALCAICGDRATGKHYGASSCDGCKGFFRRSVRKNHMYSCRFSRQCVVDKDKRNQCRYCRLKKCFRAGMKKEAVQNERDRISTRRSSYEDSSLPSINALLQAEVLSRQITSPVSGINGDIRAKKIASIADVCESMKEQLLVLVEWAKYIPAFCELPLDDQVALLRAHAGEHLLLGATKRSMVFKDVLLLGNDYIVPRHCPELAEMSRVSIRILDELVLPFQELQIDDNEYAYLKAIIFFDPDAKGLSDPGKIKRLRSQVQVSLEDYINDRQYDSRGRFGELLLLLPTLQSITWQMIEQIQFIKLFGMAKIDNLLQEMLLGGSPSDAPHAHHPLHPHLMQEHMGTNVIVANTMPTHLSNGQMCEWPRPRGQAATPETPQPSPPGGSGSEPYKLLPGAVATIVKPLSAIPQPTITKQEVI
Assay: protein-binding microarray
Settings: COS-7 nuclear extract on double-stranded Agilent 4x180k PBM; binding buffer, salt, pH and temperature not given; high values mean tight binding; double strand, one strand shown; sequences stand for … in …GCCTAGGGAGATTAGAGTATCGGTCGA

Sequence	binding signal (log2 normalized intensity)
ACACTTAGAGATAAGGTAACAGGCCAAAGG	0.838
GGTGTGGGGGTGGAGAAGGAAGGGGAAGAT	-1.07
ACCCAAGCGGCCATTTACTGACTAAAGGTT	1.18
GAATTTTGGACAAGGTAACCCCCAACATTC	3.38
GAAAATGCAAGGAAATGGATTGCCTCCTAA	-1
GTTGAATGGACGGACAGGTAACGTAAACAA	-1.22
CTTCCCAGCTGCTGGTCAAAGGGCATTACT	4.94
GACCCCTTTCATGAATAAATGACATAGTGA	1.7
CTTCTCTTTGAGTCCCAATCCCCCATCTAT	4.08
GGATGTGTGATCTTGGGTAAGCCACTGAAC	1.39
ATATGTCTTAAGCTAACATGTACAGTATTG	1.07
GTGGCCAGGCTGCGTTTCAAAGCCAGGACT	-1.13
TTTTGTGTTAGAGGGTGGTGGGTGAAGGAT	1.47
TTCATAACCAAAGGATTATTACATGTTTAC	0.956
AATACTCTGAGTAAACACAGACTTTGGAAT	3.65
AGAAGCTCCAGAAATACAGAAGCTGCTCTA	-1.18
CTATCACTGGGAGATAATGCACTGGTGACT	0.519
TTACAGGTTGCAGTAAAGAAACTGGCTAAA	-1.07
GAAAACAGAGAAGCCGTGGTGCTGTCCAAG	-1.15
GACATTCCAGCCACTAAGAAGCCCAAGGTT	-1.11
GGAAAGATCAGCTGAAAACTATGCATGCTG	-1.01
AGGACGTCAGGCAGAGAGGGACTCTGACCC	5.03
AATCAGGAGCAAAGGTTGGGGGTGGGGAGG	-0.62
CCACTGAGGTCAAGATAAGATACGAAGGGT	-0.974
CCAGTTGAGTGCAAAGTCCCTAGAAGGGAT	1.44

Sequence	binding signal (log2 normalized intensity)
ACTCTCAATTCAAGTATGCACCCTTATCAG	0.0675
GGTAGAGGGACACTGATAACATGAGGATAC	-1.2
GTGAACTGTGACCTGATGACAAAGGTGAGA	1.6
TCCAAATACGATAATGTCAAACATCTTATA	-1.15
ACCCCTGAATTGGTCATAATTCTCAAACTT	0.56
TTTGCGGCCATCTAGCTACAGGAGAACAAA	-1.13
TAAATGAGAAGAAATGATGGGTGCCACTTC	-1.13
ACAGCACTGACCTTTGAGAGTCAACACTGA	2.58
TGAGGCCAGTTTTCCCAAAGGAGCTTTATT	-1.06
GTTCAGGGAAGAGGGCACTCAGGCTCTCAG	-1.05
AAGATGCAACCCCGTTTACTTTTGTACACA	1.6
AGCTGTGTGCTCCTGTAGAATGACCCCCTG	5.17
GCATTAACATCAACATGGACTTTGAGTCAT	6.21
AGAGCAAGGGTCCAGATTAGAGCACAATGT	0.344
CCAGCTGGTAAGTGCAAGGCCCAGCTAGAA	-1.12
AGTAAGCATGCCTTACCATTGCTTTCTTCC	-1.18
GTGGTCCTAAAATTGACCTTTGATCACTCA	9.68
GACCTTCACCAGATACTGAATCTCCCAGTG	-1.18
CACACCTCCCTTGCACCAGTTTCTCAACAG	-1.25
AGCCAAGGAGAGAGGCCTCTAGATAAACCA	-1.15
TGCAAACATTGGTTGCAAAAACAATCAGGG	-1.29
GCTTTTGGGCAGAGACTATGTGGTTTTGTA	1.54
GACCTCTGGACCTCATCTTCCTCCCCAATA	4.37
CCCCTAGTATATTGGCTTGGCTGTGTCCCT	1.67
CTCAGGTCAGGGAAGACTGATAAGAAAACT	-0.891

Sequence	binding signal (log2 normalized intensity)
TAAGGTGGGAATGCTGATCAAGTGTCTCTA	0.762
TAACCTTTGGGTGTGTTCAGCGAGGAATGT	2.01
CCCTTGATCAAAAACTGCCTAAATCCAAAG	-1.2
GAAGGTCCTTCACTAAAGTTACAAGATCTT	-0.273
ACGCTGGTCAGCATCCTGCTTGTGAGACCG	-0.854
TCAGCTCATTCAAAGTCCAAAAAGAATCAG	1.8
CTTTAGTTCAGGGAAGAGGGCACTCAGGCT	-1.1
CGGGGGCCCTTCCCCCCTCTGCAGCCTTAC	3.11
CTCCAGACACGGGGATAACACCTGCCTTAG	-1.3
ATTTGTTAAGAACTGGAGTAAAGGTCACTC	4.15
ATATCTATATGTTTACATATCACTGTACTC	2.08
GCCTGCATTGGAGGCCCTCTGTTGCTTCAA	-0.781
GGATGGCATGTCTCTGGTCGGGGAGGTGTT	1.53
CCAGCTGGTAAATAAAGGAACTTACGAAGA	-1.04
GAGATTCCTCTGCACAATAAAACTTGGTCG	0.213
AAGGGAGTAAAGGTCGTTCTATCGGAGAAC	3.52
AGTCAGTCAAAATGAATAGTCCTTTAGGAA	0.881
TCTTTTTGTTGTTAGAACAAAGTCCAAATT	5.22
AAAGTCCGGAATTTCCTCCTGGCAGAGCAT	-0.948
TTGTTAGACCCTTATCAGTAGTTCTCCTTT	0.646
TCCCGAAAGTGACCCTCTGCCCCCTACACA	5.37
GGTCCAAGGTTCAGAGCCTGGCTGGCCTGG	0.818
CCCCACTGAAAGTGTGTTAAATTGAATTGG	0.972
CAGAGTCACCTGTAGGGATGTGGGACTTAA	-0.0571
ATTCTCCCATTTTATGGGCTAACGCTGCTG	-0.681

Sequence	binding signal (log2 normalized intensity)
AGGGTTGAAGAAAGATCACACAAATGGATC	-1.15
CAACATGGACTTTGAGTCATAAGAAACATT	3.72
CCTCAGTGTGGGACTTTGGTCTGCTGAGTC	3.36
CTCTGAATCCTCAACATCCAGCACAGTGCT	-1.25
CTGTTGTGACATACTGCCTTTCTAGAACCA	-0.661
ATTCGTTCATCAGATTAGAAGGCAGAGAAA	0.773
GGGCAGGGTCAGAACCTGCCCATGACCTTT	5.92
TGTCTACAAACACAGAAGTGGACCTTCACC	4.86
GCAAGGGTGGTGACAAAGACAGATTAGATC	0.843
AATCTCTCAAATCTAGCCAATGATGCTAGC	-1.21
CCTCCAATCAGGACAGACTGGTTGATCTGG	0.575
CAATCCCATGACCTTTGTACTAATGATTTG	5.84
CCAAATAGGTCCCTGCTTCCAAGTCTCAGC	-1.1
CGCAGATCCCCGCTCCCCTCCCCCACCCGC	6.35
CAATCTTCTGGCCCCATCTATCTAGCCTGA	0.757
CTGATCACTACAAGCTTTGAAGGCAAGATA	-1.13
TCTAGGGTTGCCCAGGGAGAGCTGGACTTT	6.11
ATTGTGCTGACTGGTTGGAATTCCAGTGTT	1.17
TCTGCCGAAGATATTTAACCTAAATCTAGT	-1.14
AACTATTGAGACTTTGGGGTTTTATGGCAC	1.27
ATCAAACAGATGTAGACATTGGAATGCGGG	0.957
GAGATTACATTTGACTGAGGTGCAGGACAA	0.246
TCAACAATTCTATGAGTAGGTACAAATTCC	1.78
AGGCCTTCAACTGATAAGAAGGGGCCTAGC	-1.17
TGGGCCAGGTATTTGGACTTTTTGTAGTTT	3.1

Sequence	binding signal (log2 normalized intensity)
ACCCAGTGAATTCCTTCCTTATCAGCAGCC	-0.73
CTTTTGAGGGTGACCGATCGTTATTGCCTT	1.4
CTCAAAGTCCACCAACTCTGTGAATTCATT	1.48
GCGTAGTTCAGAGAAAACGAGGCACTATCT	-1.05
AACCTGGCTGCGAGTCCCTGCTGTGTCACG	-1.2
GGGTTGAGTGGTGACTGAAGTCCAACCCTC	2.21
ATCAATACCAGCCAATTAGAAGGCTCCCTG	-1.19
AGCTCCCCTTTTAAACTGAAGCATGCTATT	1.38
AAGTGCAAGGGCCCAGAGGAAGGAATGCAC	-1.04
GTCGAAACTACAAACGGATATTTGATCAAA	0.511
GGCGATAACTCCTTTGTGTGAATCGACCTT	4.02
AGGGTACACACCGTTAGCCAATATTTGCAA	-1.11
TGTGATAAGAAATGAATGTCACTTTCTGAC	0.229
TCCATCATTCATACATTTGCCTGAACTTTA	2.3
AAATGTTATGGCTGGTTTGGTCTTTTATCT	1.95
CCATCCTACAGGGTATGAATTTAACCTTTG	4.2
CCCTGGACCTTGTCATACTGGTTGAATGGA	2.5
AATTCACGTCATTTTGTCACCTACATGTGA	1.67
GGGTACAGACAATAGGAAGAGTGAGGTCAC	1.58
TTATTTCCCCTTTCTGTTGGAAGCTGATAA	1.84
ATCACGGACTATCCCCGTCCGCGGAAGCAC	0.338
TTTCTGAAGACCTTCAACTGATTAGATAAG	-0.765
AAGTTCAAGTAGATAAAATCAAACAGATGT	1.02
AAAAGTATGTCATAATGTACTCCACTGTGC	1.63
GGGCCCTGACCTCAAGTGACCTTTGACCTC	12.1

Sequence	binding signal (log2 normalized intensity)
GAACAAAGGTTGGTGTGAACCAGGGTTAAG	0.583
GATACAGTTATGAAAAGAAACAGCCAAAAG	-1.13
TGAACTATTGAACCACCAGATAGAGCTTTT	0.21
GCATTAGTTATATCTTACCTCCTTCTCCCC	3.05
TTGAGAGAGATTAAAGGTCAAGCCCAACCA	3.71
TGTCTCACCTCGCTATCACCCCGATAAGGA	2.94
GGGCTCAAACAATCCTCCCACCTCAGCATC	0.826
TCCCCACCTTCCATTACCACATTCTCACCA	1.8
CTTTGATAGCCAAGCCAACCAGGAGAATTT	2.12
CTTTAACGACCTTTGGACTTGAATTATCCT	7.84
CTAACCTTGAGGAGCCCTATCCGCAGCTGC	-1.16
TTACACTGGCTGCCCTGGGGATCAAAGCGT	-0.591
TAAAGTATGTGGTGGGTGTGGTGATGGCAG	1.76
CCAGTTGGTGGGTCAAGGTGCAAAGAGATG	2.09
TTGACTCTTCCCATCTAACTGCCCCTGATA	3.78
GAACATCTGATTTCCCCGTCCCAAGCTGAG	3.3
GTCAACAGCCAGCCTCAAAGATCAAAGGTA	2.18
CAAAGGGCTTATTTTAGGAGCCTCCAATCA	-1.2
TATCCAGTCAATCCCGTGGACTTTGCCTGC	6.35
AATCTGCAGCCGCCGGAGAATTAAACTGCC	-1.15
